# Hit rate of the full screen: of about 46,000 compounds, about 60 (0.1%) were called active. About 3% were inconclusive and are not listed. Calls come from the whole dose curve; as a rule, active = well fitted inhibition curve with a large enough effect; inconclusive = small, poorly fitted or top-dose-only effect; inactive = no such curve, though single readings can be large or run the other way. This is one part of the list.
# Assay: Primary qHTS assay for Inhibitors of ovarian cancer metastasis using an organotypic tumor microenvironment (TME) model.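 For activity change, negative = inhibition: plate controls were DMSO wells for no effect and tomatine positive control wells for full effect.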 Note: nearly all actives have a fitted effect of over 65% in size.
# Conditions: SKOV3ip1-GFP adhesion/invasion on 3D omental model, fluorescence; series mostly up to 45.8 µM; activity change, negative = inhibition: at the top concentration
# Procedure, shortened: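 A 3D layer of primary human omental fibroblasts, mesothelial cells, fibronectin and collagen I, grown 48 hr, received SKOV3ip1-GFP cells in serum-free medium plus compounds at 0.36-46 umol/L. After 2 hr RT and 16 hr 37 C, fixed adherent GFP cells were counted; normalized to DMSO and tomatine.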
SMILES,"activity change, negative = inhibition",outcome
Cc1cccc(NC(=O)C(NS(=O)(=O)c2ccc3c(c2)oc(=O)n3C)C(C)C)c1 (stereo not drawn),inactive: 0.209%,–
O=C(Nc1cccc(C(=O)OCc2cc(=O)n3c4c(sc3n2)CCCC4)c1)c1ccccc1,–,inactive
CC(C)c1ccc(OCC(=O)N(Cc2ccc(N(C)C)cc2)C2CCS(=O)(=O)C2)cc1 (stereo not drawn),inactive: 3.09%,–
C=Cc1ccc(CSc2nc(-c3ccc(C)cc3)nc3c2Cc2c(CO)cnc(C)c2O3)cc1,inactive: -3.55%,–
CCc1ccc(NC(=O)Cn2c(=O)n(Cc3ccco3)c(=O)c3cccnc32)cc1,inactive: -8.39%,–
Cc1cc(C)c2nc(N(Cc3cccnc3)C(=O)CCOc3ccccc3)sc2c1,inactive: 7.33%,–
CCCNC(=O)CCSc1nc(-c2ccc3c(c2)OCO3)cc(C(F)(F)F)n1,–,inactive
CCOc1ccc(S(=O)(=O)Nc2nc3ccccc3nc2Nc2ccc(OC)cc2)cc1,inactive: -3.94%,–
Cc1ccc2nc(-c3cccnc3)c(Nc3ccccc3C)n2c1,inactive: -2.61%,–
O=C1NC(=O)C(=Cc2ccc(-c3ccc(F)cc3)o2)S1,inactive: -18.4%,–
CCOC(=O)c1c(SCC(=O)Nc2cc(Cl)cc(Cl)c2)nc(=O)[nH]c1C,inactive: 17.6%,–
COc1cc(CCC(=O)NCc2ccc3c(c2)CCN3C(=O)c2ccc(F)cc2)cc(OC)c1OC,–,inactive
Cc1cccc(-n2ncc3c(N4CCN(c5ccccc5)CC4)ncnc32)c1,inactive: 2.99%,–
CCN(CC)c1ccc(NC(=O)Cn2nc(C)n3cccc3c2=O)c(C)c1,inactive: 9.55%,–
Cc1nc(-c2ccc(S(=O)(=O)NCc3ccc(N(C)C)cc3)cc2)co1,–,inactive
Cc1ccc2nc(NCc3ccc(F)cc3)c3nncn3c2c1,inactive: -6.17%,–
CCCCNC(=O)C1CCC(CNS(=O)(=O)c2ccc(NC(C)=O)cc2)CC1 (stereo not drawn),inactive: 0.111%,–
COc1ccc(-c2nc3c(c(SCC(=O)N(C)c4ccccc4)n2)Cc2cc(C)ccc2O3)cc1,inactive: 1.51%,–
COc1ccc2ncc3c(-c4ccc(C)c(C)c4)nn(CC(=O)NC4CCCC4)c3c2c1,inactive: -1.97%,–
CCc1nn2c(=O)cc(COC(=O)c3ccccc3NC(=O)C3CCCCC3)nc2s1,–,inactive
CCc1ccccc1NC(=O)CCc1c(C)nn(-c2ccc(N3CCOCC3)nn2)c1C,inactive: 8.2%,–
COc1cc2ccccc2cc1C(=O)N1CCN(c2nc3ccc(F)cc3s2)CC1,–,inactive
O=C(c1ccc(F)cc1)n1nc(-c2ccccc2)nc1NCc1ccc(F)cc1,–,inactive
CCc1ccc(CNCc2c(C(=O)O)n(Cc3ccc(F)cc3Cl)c3cc(OC)ccc23)cc1,inactive: 15.6%,–

SMILES,"activity change, negative = inhibition",outcome
COc1ccccc1-c1noc(-c2ccc(NC(C)C)c([N+](=O)[O-])c2)n1,–,inactive
COc1ccc(Cn2c(=O)[nH]c3cc(C(=O)N4CCN(c5cc(Cl)ccc5C)CC4)ccc3c2=O)cc1,–,inactive
COc1ccc2[nH]cc(S(=O)(=O)c3ccc(C)c(C)c3)c(=O)c2c1,inactive: 1.88%,–
O=C(CCCCn1c(=O)c2ccccc2n(CC(=O)Nc2cccc(F)c2)c1=O)NCCc1ccccc1,inactive: 34.8%,–
COc1ccc(-c2nn(-c3cccc(F)c3)c3c2cnc2cc(OC)c(OC)cc23)cc1,inactive: -8.79%,–
COc1ccc2oc(=O)c(-c3nc(-c4cccs4)no3)cc2c1,inactive: -0.543%,–
Cc1ccc(NC(=O)Cn2nnc(C(=O)NCc3ccc4c(c3)OCO4)c2N)cc1Cl,inactive: -1.23%,–
O=C(NC1CC(=O)N(c2ccc(F)cc2)C1)C1CC1 (stereo not drawn),inactive: -0.421%,–
CC(C)NC(=O)CCN1C(=O)c2ccccc2Sc2ncccc21,–,inactive
CCc1ccc(NC(=O)Cn2cc(S(=O)(=O)N3CCCC3)c(S(=O)(=O)N3CCCC3)c2)cc1,inactive: 7.48%,–
CSc1nc2sc3c(c2c(=O)n1-c1ccccc1)CCC(C(C)(C)C)C3 (stereo not drawn),–,inactive
Cc1cc(C)cc(NC(=O)CCCc2nc(-c3ccccc3Cl)no2)c1,inactive: 9%,–
CCOCC(O)COc1ccc(NC(=O)CC[S+](C)C)cc1 (stereo not drawn),inactive: -13.6%,–
O=C(c1cc(-c2ccc(O)cc2)on1)N1CCN(c2ccccc2)CC1,–,inactive
CCOC(=O)c1cc2c(=O)n3ccccc3nc2n(Cc2ccco2)c1=NC(=O)c1ccc(OCC)cc1,inactive: 4.56%,–
Cn1c(=O)n(CCCc2ccccc2)c(=O)c2c1nc1n2CCN1c1ccc(F)cc1,inactive: -0.543%,–
Cc1nn(C(=O)c2ccc(Br)cc2)c(C)c1Sc1ccccc1,inactive: -6.01%,–
COc1cc(OC)c(N(C)C(=O)c2sc3nc4n(c(=O)c3c2C)CCCC4)cc1Cl,inactive: -17%,–
COc1ccc(CN2COc3ccc4c(-c5ccccc5)cc(=O)oc4c3C2)cc1OC,inactive: -7.71%,–
CCN(c1cccc(C)c1)c1ncnc2c1cnn2-c1cccc(Cl)c1,inactive: -20%,–
CCn1c(=O)cc(OCC(=O)N2CCN(c3ccc(F)cc3)CC2)c2ccccc21,–,inactive
CCCCOC(=O)c1ccc(NC(=O)c2cnc3ccc(C)cn3c2=O)cc1,inactive: 1.35%,–
Cc1ccc(NC(=O)Cn2c(=O)n(Cc3nc(-c4ccccc4)no3)c(=O)c3cc4c(cc32)OCO4)c(C)c1,inactive: 9.01%,–
Cc1ccc(NC(=O)C2=CC(c3ccc4c(c3)OCO4)=NS(=O)(=O)N2C)cc1,inactive: -1.06%,–
